# Assay results taken from PubChem BioAssay AID488969 (Vanderbilt High Throughput Screening Facility, 2010).
# Over roughly 110,000 compounds, “z-score” has its median near -0.1; the highest 2% begin near 2. This is one part of the list.
# Biological target: Metabotropic glutamate receptor 8 (Rattus norvegicus) (UniProt P70579)
# Assay: mGluR8 Gi/Go-coupled signaling modulation – cell-based, rat, thallium flux, HTS, primary screen (AID 488969)
# Conditions: HEK293 rat mGluR8, GIRK (G protein-gated inwardly rectifying potassium channel) thallium flux, FluoZin2; at 10 µM; stronger effect = higher value; submaximal glutamate (EC20) added with thallium
# Chain of UniProt P70579 (P70579 whole entry, looked up): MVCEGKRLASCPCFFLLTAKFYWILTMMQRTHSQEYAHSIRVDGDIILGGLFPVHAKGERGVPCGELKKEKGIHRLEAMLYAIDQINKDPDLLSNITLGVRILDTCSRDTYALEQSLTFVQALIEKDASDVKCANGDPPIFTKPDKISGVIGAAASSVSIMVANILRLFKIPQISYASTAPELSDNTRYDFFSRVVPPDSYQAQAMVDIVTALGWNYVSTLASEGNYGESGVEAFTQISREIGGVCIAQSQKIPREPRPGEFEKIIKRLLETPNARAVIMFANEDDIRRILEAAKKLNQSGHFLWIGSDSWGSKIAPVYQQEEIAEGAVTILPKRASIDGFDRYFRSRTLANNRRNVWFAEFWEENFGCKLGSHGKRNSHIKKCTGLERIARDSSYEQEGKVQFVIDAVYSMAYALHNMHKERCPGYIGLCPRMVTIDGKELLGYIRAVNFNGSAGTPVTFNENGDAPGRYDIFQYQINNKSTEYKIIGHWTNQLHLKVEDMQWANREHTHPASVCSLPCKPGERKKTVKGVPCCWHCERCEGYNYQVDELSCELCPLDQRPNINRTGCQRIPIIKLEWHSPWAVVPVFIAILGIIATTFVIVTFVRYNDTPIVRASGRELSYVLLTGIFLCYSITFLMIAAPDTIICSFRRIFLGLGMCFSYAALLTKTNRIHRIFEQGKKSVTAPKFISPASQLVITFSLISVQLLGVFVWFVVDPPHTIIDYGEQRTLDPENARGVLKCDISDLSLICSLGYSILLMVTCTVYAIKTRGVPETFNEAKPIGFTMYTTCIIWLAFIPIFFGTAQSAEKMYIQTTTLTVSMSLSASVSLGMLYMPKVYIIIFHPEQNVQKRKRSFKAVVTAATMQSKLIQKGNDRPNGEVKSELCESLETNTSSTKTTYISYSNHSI
row,SMILES,z-score
1,COc1ccccc1N1CCSC1C(N)=O (stereo not given),0.0543
2,CCOc1ccc(N(C(C)C(=O)Nc2ccc(OC)cc2)S(C)(=O)=O)cc1 (stereo not given),-0.0891
3,COc1ccc(NS(=O)(=O)c2ccc(N/N=C/c3ccc(N4CCOCC4)cc3)c([N+](=O)[O-])c2)cc1,-0.0386
4,Cc1nnc(SCCn2c(N3CC(C)CC(C)C3)nc3c2c(=O)[nH]c(=O)n3C)s1 (stereo not given),-0.0306
5,Cn1c(O)c(N=NC(=O)CNC(=O)c2ccco2)c2ccccc21,-0.2
6,Cc1ccc(OCC(=O)Nn2cnnc2)c(Br)c1,-0.0537
7,Cc1cc(OCCCC(=O)NC2=NCCS2)ccc1Cl,0.598
8,CN1C(=O)c2ccc(NC(=O)c3c(F)c(F)c(F)c(F)c3F)cc2C1=O,-0.121
9,CC(=O)Nc1ccc(S(=O)(=O)Nc2nnc(C(C)C)s2)cc1,0.64
10,COc1ccc(OC/C(O)=C(\C#N)c2nc3ccccc3[nH]2)cc1,-0.162
11,Cc1ccc(Cn2ccc(NC(=O)C3C4CCC(C4)C3C(=O)O)n2)cc1 (stereo not given),0.0155
12,N#CC1=C(N)SC(N)=C(C#N)C1c1cccc(Oc2ccccc2)c1,0.744
13,CN1CCN(c2nc(-c3ccccc3)cc(C(F)(F)F)n2)CC1,0.0193
14,CCCC(=O)Nc1ccc(C(=O)n2nnc3ccccc32)cc1,-0.112
15,Cc1ccc(C)c(N2CCN(C(=O)CCCn3c(=S)[nH]c4cc5c(cc4c3=O)OCO5)CC2)c1,0.0212
16,CN(c1ccccc1C(=O)Nc1cccc(Cl)c1Cl)S(C)(=O)=O,0.0249
17,Nc1cc(C(=O)O)ccc1N1CCCCCC1,-0.171
18,CC(C)CCNC(=O)C1CCN(c2nnc(-n3cccc3)s2)CC1,-0.259
19,O=C(CS(=O)(=O)Cc1ccccc1)N1CCN(Cc2ccc3c(c2)OCO3)CC1,0.245
20,CCCC(=O)Nc1sc2c(c1C#N)CCCC2,-0.0477
21,C=CCOc1ccccc1C1NC(=O)NC(C)=C1C(=O)NCc1ccccc1 (stereo not given),0.175
22,CCOC(=O)c1ccc(NC(=O)CCOc2ccc(C)cc2)cc1,-1.04
23,CC/C(C)=N/NC(=S)NCc1ccco1,0.0671
24,COc1cc(/C=C/C(=O)c2ccc(C)c([N+](=O)[O-])c2)cc(OC)c1O,-0.611
25,COC(=O)C1CSC(C(=O)OC)N1C(=O)CN1CC(C)OC(C)C1 (stereo not given),0.0363
26,CCC/C(O)=C1\C(=O)CC(C)(C)CC1=Nc1ccc(OC)cc1OC,-2.72
27,Cc1cccc(/C=N/n2c(C)nnc2C)c1,0.00103
28,COc1ccc(OCC(=O)NCCc2ccc(S(N)(=O)=O)cc2)cc1,0.211
29,Cc1ccc(Nc2nc(CSc3nnc(-c4cccs4)o3)cs2)cc1,0.303
30,C=CCN(c1cccc(C(F)(F)F)c1)S(=O)(=O)c1cccc(C(=O)OCC(=O)NC(N)=O)c1,-0.548
